# Legend:
# Assay type in all cases: in vivo
# soybean [1] = test: Foliar RHPP on soybean, nodulation and biomass (Example 23)
# Experimental: Effective nodulation of soybean roots result in higher yields and higher quality seed production, protein and oil per seed or acre basis. This could be due to increased nitrogen fixation since nodulale formation increases nitrogen fixation. To determine whether root hair promoting bioactive priming polypeptide, RHPP (SEQ ID NO: 600) could modulate root biomass and nodulation and thereby improve nitrogen fixation, soybean plants (hybrid Morsoy 38×52 and Beck's hybrid 297R4) were treated with foliar application of RHPP (300 nM) at the R1-R2 stage of development.
# RHPP bioactive priming polypeptide (SEQ ID NO: 600, originally derived from Glycine max) was applied as foliar treatment to 4-week-old hybrid soybean (Morsoy variety) with 0.1% (v/v) non-ionic surfactant ([…] SURFACE™) using a spray bottle and delivering approximately 1.25 ml/plant. The experiment was conducted using a total of 8 plants per trial per treatment group. […] Growth parameters of nodule counts, root biomass and total biomass per plant were measured at 15 days post the foliar application and compared between the foliar treatments consisting of […] SURFACE surfactant (0.1% v/v) as a control and the RHPP polypeptide (300 nM) containing the […] SURFACE surfactant (0.1% v/v). Average growth parameters as described were normalized to the control plants that received the surfactant alone treatment (Table 38).
# soybean [2] = test: Soybean seed treatment with Flg22 polypeptides and RHPP, yield (Example 10); conditions: 12 locations
# From the text: A third study was set up to look at soybean seed treatment benefits of Bt.4Q7 Flg22, RI Bt.4Q7Flg22, Ec.RI Flg22, and RHPP as a seed treatment on soybean.
# [3] = test system: jalapeno peppers (Capsicum); test: Foliar Bt.4Q7Flg22 and Gm.RHPP on jalapeno pepper (Example 41)
# Experimental: Small-scale plots were designed to simulate commercial growing conditions for jalapeno peppers. Peppers were grown for 12-weeks in a controlled growth room and then transplanted outside in 2 raised beds covered with black plastic mulch that had good water-holding characteristics and in soil having a pH of 5.8-6.6. Jalapeno pepper plants were spaced 14-16 inches (38 cm) apart with 16-24 inches (50 cm) between plants containing approximately 25 plants per row bed. Plants were grown using drip irrigation and fertilizer applied following grower guidelines throughout the growing season to provide optimum conditions for plant growth. The raised bed plots were designed to simulate the planting densities used by commercial growers that generally plant approximately plants per acre (5,000-6,500 plants per acre or 12,355-16,062 plants per hectare) in double rows 35.6-45.7 cm apart with the beds spaced 5.0-6.5 feet (1.52-1.98 meters) apart from their centers (Orzolek et al., “Agricultural Alternatives: Pepper Production.” University Park: Penn State Extension, 2010).
# Plants were treated in replicates of 6 plants, with three replicates per treatment. Replicates with average yield per plant 50% above or 50% below the median yield for the trial were excluded as outliers.
# The number of peppers and the above ground biomass per plant were normalized to the yield and to the biomass of the pepper control plants that were treated with surfactant alone (Table 62).
# peppers (Capsicum) = test: Foliar treatment of pepper varieties RK and HHW, yield (Examples 13, 26)
# Experimental: Foliar treatments of Bt.4Q7 Flg22 and Ec.Flg22 bioactive priming polypeptides were applied using small scale plots designed to simulate commercial growing conditions for peppers (Capsicum). Two varieties of pepper: Red Knight (RK) and Hungarian Hot Wax (HHW) were grown from 6-week old transplants in raised beds covered with black plastic mulch that had good water-holding characteristics and a pH of 5.8-6.6. Plants were grown using drip irrigation and fertilizer applied following grower guidelines throughout the growing season to ensure optimum plant growth and yields. Small raised bed plots were designed to simulate the planting densities used by commercial growers that generally plant approximately 10,000-14,000 plants per acre in double rows 14-18 inches (35.6 to 46 cm) apart on plastic mulched beds with 16-24 inches (40.6 to 61 cm) between plants in the row and with the beds spaced 5.0-6.5 feet ([…]) apart from their centers. A single row of peppers also can be planted on each bed (5,000-6,500 plants per acre or 12,355-16,062 plants per hectare).
# Effects of the foliar applications on pepper yield were determined for two separate harvests using a once over harvest approach and normalized to the yield of the control plants. The average percentage change in yield for each treatment over the yield for the control plants is reported as pounds/acre (lbs/Ac) in Table 29.
# Foliar treatment of Gm.RHPP (SEQ ID NO: 600) was applied as an exogenous spray at the first-bloom stage to increase yield in two pepper varieties. Foliar treatment of Gm.RHPP was applied using small scale plots designed to simulate commercial growing conditions for peppers (Capsicum) as described in Example 13. Foliar applications with the Gm.RHPP bioactive priming polypeptide were applied at the first flower stage, on two varieties of pepper, Red Knight (RK) and Hungarian Hot Wax (HHW). […] Effects of the foliar applications on pepper yield were determined for two separate harvests using a once over harvest approach and normalized to the yield of the control plants. The average percentage change in yield over the yield for the control plants is reported in Table 42, as the percent change per total weight (lbs/Ac) of peppers harvested. Average percent change in yield is reported for the 2 replicate harvests (trials) for the RK and HHW pepper varieties and then as a combined average for both varieties.
# soybean [4] = test: RHPP with N-RAGE MAX fertilizer on soybean, yield (Example 24)
# From the text: The Gm.RHPP bioactive priming polypeptide (SEQ ID NO: 600) was applied as a foliar application with a liquid foliar fertilizer, N-RAGE MAX (21-1-3 N—P-K), to two soybean varieties (AG3536 and AG3832).
# [5] = 300 nM foliar, 15 days post application
# [6] = soybean Morsoy, 300 nM + 0.1% v/v ALLIGARE SURFACE, 15 days post foliar application
# [7] = soybean Morsoy, 300 nM, 15 days post foliar application
# [8] = jalapeno pepper, foliar at early bloom, 3.2 fl oz/Ac
# [9] = 1 Fl. oz/Ac (300 nM) with N-RAGE MAX fertilizer, R2, variety AG3536
# [10] = both soybean varieties, foliar at R2, use rate Fl. oz/Ac: N-RAGE MAX 128, RHPP 4.0
substance,measurement,setting,value
RHPP: root hair promoting polypeptide derived from Glycine max (GGIRAAPTGNER; Glycine max),increase in root biomass normalized to control,soybean [1]; [5],more than 20%
same,increase in total biomass normalized to control,soybean [1]; [5],8%
same,number of nodules on roots vs surfactant control,soybean [1]; [5],approximately two times the number of nodules
same,Average nodule count per plant,soybean [1]; [6],15.13
same,Root biomass,soybean [1]; [6],2.13 g
same,Total biomass,soybean [1]; [6],46.24 g
same,"Average nodule count per plant, RHPP treatment normalized as a percentage of the surfactant control",soybean [1]; [7],170.42%
same,"Root biomass, RHPP treatment normalized as a percentage of the surfactant control",soybean [1]; [7],120.57%
same,"Total biomass, RHPP treatment normalized as a percentage of the surfactant control",soybean [1]; [7],108.44%
same,win rate,soybean [2],64%
same,yield advantage,soybean [2],0.4 Bu/Ac
same,increase in weight of peppers per plant vs surfactant only control,[3]; 3.2 Fl. oz/Ac,27%
same,Average Fruit Weight (grams) per Plant,[3]; [8],156.6 grams
same,Percentage Change in Fruit Weight Compared to Surfactant Control,[3]; [8],+27%
same,increase in pepper yield over control,"peppers (Capsicum); HHW variety, 1 Fl. oz/Ac",46%
same,combined average increase in pepper yield (lbs/Ac) over control,"peppers (Capsicum); RK and HHW varieties combined, 1 Fl. oz/Ac",67%
same,increase in pepper yield over control,"peppers (Capsicum); RK variety, 1 Fl. oz/Ac",87%
same,Combined Avg. Percent Change Yield Total Number (lbs/Ac) RK and HHW,"peppers (Capsicum); both pepper varieties, foliar 1 Fl. oz/Ac, vs water control",+67%
same,Avg. Percent Change Yield Total Weight (lbs/Ac) Hungarian Hot Wax,"peppers (Capsicum); pepper variety HHW, foliar 1 Fl. oz/Ac at first flower, vs water control, 2 harvests",+46%
same,Avg. Percent Change Yield Total Weight (lbs/Ac) Red Knight,"peppers (Capsicum); pepper variety RK, foliar 1 Fl. oz/Ac at first flower, vs water control, 2 harvests",+87%
same,yield advantage compared to control treatment,soybean [4]; [9],1.9 Bu/Ac
same,yield increase compared to fertilizer alone,soybean [4]; [9],1.4 Bu/Ac
same,Average Bu/Ac Change compared to Control Variety 1 and 2,soybean [4]; [10],+0.9 Bu/Ac
same,Average Total Yield Bu/Ac Variety 1 and 2,soybean [4]; [10],63.23 Bu/Ac
same,Average Total Yield Bu/Ac Variety 1,"soybean [4]; soybean variety 1 (AG3536), foliar at R2, 5 US Midwest locations, use rate Fl. oz/Ac: N-RAGE MAX 128, RHPP 4.0",65.42 Bu/Ac
same,Average Total Yield Bu/Ac Variety 2,"soybean [4]; soybean variety 2 (AG3832), foliar at R2, 5 US Midwest locations, use rate Fl. oz/Ac: N-RAGE MAX 128, RHPP 4.0",61.04 Bu/Ac

# Reference: patent US12599649B2, “Bioactive polypeptides for improvements in plant protection, growth and productivity” (priority 2017, dated 2026)
